# Among all 50,000 compounds or so, about 800 (1.6%) showed an effect of 50% or more. Some of the results follow.
# Target: Bcl-2-like protein 10 (Homo sapiens) (UniProt Q9HD36)
# Assay: TR3 peptide-Bcl-B binding displacers, biochemical primary FP assay, phenotype converters (AID 1240);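 further: 0% = Bcl-B with tracer peptide and DMSO and 100% = tracer peptide lacking Bcl-B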
# Conditions: GST-Bcl-B / FITC-TR3 peptide fluorescence polarization; stronger effect = higher value; compound at 3.75 mg/L
# UniProt Q9HD36, sequence (Q9HD36 whole entry, looked up): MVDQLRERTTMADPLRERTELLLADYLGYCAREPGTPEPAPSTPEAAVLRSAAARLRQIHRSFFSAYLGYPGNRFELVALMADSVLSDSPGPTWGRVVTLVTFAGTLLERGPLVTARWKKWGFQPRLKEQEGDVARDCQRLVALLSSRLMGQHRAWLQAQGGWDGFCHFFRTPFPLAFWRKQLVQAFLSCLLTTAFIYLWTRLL
row,SMILES,displacement [%]
1,O=C1NC(=O)N(c2ccccc2)C(=O)/C1=C\c1cccc(Br)c1,-1.7
2,N#C/C(=C/c1ccc(O)c([N+](=O)[O-])c1)C(=O)Nc1cccc(Br)c1,-8.5
3,CCCOc1cccc(C(=O)Nc2sc(C)c(-c3ccc(C)cc3)c2C(=O)OC)c1,4.5
4,C(=N\Nc1nn[nH]n1)/c1ccc(N2CCOCC2)cc1,12.3
5,COc1ccc(CNC(=O)CN(c2c(C)n(C)n(-c3ccccc3)c2=O)S(=O)(=O)c2ccccc2)cc1,-6.2
6,CCOc1ccccc1NC(=O)C(=O)NCCO,1.8
7,CC(=O)c1cc(C(=O)Nc2ccccc2C(=O)O)oc1C,-5
8,C=C1CC2C(CCC3(C)C2CCC3(O)C(C)=O)C2(C)CCC(=O)C=C12 (centres undefined),-11.8
9,COc1ccc(N(CC(=O)Nc2cccc(C(F)(F)F)c2)S(=O)(=O)c2ccccc2)cc1Cl,12.6
10,O=C(Nc1cccc(Br)c1)c1ccn(C(=O)c2ccc(Cl)cc2)n1,-7
11,CC(=O)c1ccc(NC(=S)NC(=O)/C=C/c2ccccc2)cc1,41.4
12,Fc1c(F)c(F)c(SCCc2ccncc2)c(F)c1F,7.3
13,COc1ccc(C(=O)N/C(=C\c2ccc(Cl)cc2)C(=O)NCC2CCCO2)cc1 (centres undefined),4.4
14,CCOc1ccc(NC(=S)NCc2ccco2)cc1,8.5
15,COc1cc(/C=C2/C(=O)NC(=O)N(c3cc(C)cc(C)c3)C2=O)cc(Br)c1OC,10.9
16,COc1ccc(OC)c(/C=C2\SC(=S)N(NC(=O)c3ccccc3)C2=O)c1,1.8
17,CC(C)=NNc1nnc2c(n1)[nH]c1ccccc12,15.9
18,COC(=O)C1=C(C)N=c2s/c(=C\c3ccc(N(C)C)cc3)c(=O)n2C1c1ccccc1Cl (centres undefined),6.5
19,O=C(CSc1ncn[nH]1)Nc1ccc(Cl)c(Cl)c1,15.5
20,CCC1(C(O)(C#CCN2CCCCC2)c2ccccc2)CCCC1 (centres undefined),3
21,O=C1C(=O)N(c2cccnc2)C(c2ccc3c(c2)OCO3)/C1=C(\O)c1ccccc1 (centres undefined),-7
22,CCOC(=O)c1c(NC(=O)CC2SC(N)=NC2=O)sc2c1CCCC2 (centres undefined),6.3
23,COc1cc2c(C)nc3c(cnn3-c3ccccc3)c2cc1OC,-5.8

row,SMILES,displacement [%]
1,O=C(COc1ccccc1)Nc1cc(C(F)(F)F)cc(C(F)(F)F)c1,8.5
2,NC1=NC(=O)C(CC(=O)Nc2ccc(Cl)cc2)S1 (centres undefined),0.4
3,O=c1c2ccccc2nc(Cc2ccccc2)n1Nc1ccccc1,-11.2
4,O=C(Nc1ccc2nn(-c3ccc(Cl)cc3)nc2c1)c1ccccc1,-1.9
5,COC(=O)C1=C(C)N(C)C(=O)/C1=C\c1ccccc1Cl,18.1
6,CCc1cc2c(=O)c(-c3nc4ccccc4n3C)coc2c(CN2CCN(C)CC2)c1O,40.6
7,O=C(CSc1nnc(-c2ccco2)n1-c1ccccc1)NCCOc1ccccc1,7.5
8,COc1ccc(CCNC(=O)c2cccc3ccccc23)cc1OC,-11.3
9,O=C1CSC(c2cn(-c3ccccc3)nc2-c2ccc(Cl)cc2)N1Cc1ccccc1 (centres undefined),-6.5
10,O=C1NCc2ccccc2-c2ccccc21,8.6
11,CC(C)CCNCC(O)Cn1c2ccc(Br)cc2c2cc(Br)ccc21 (centres undefined),5.2
12,CCCC(=O)Nc1ccc(C(=O)/C=C/c2ccc(Cl)cc2Cl)cc1,-10.9
13,COc1cc(C(=O)NCCOc2ccc(C)cc2)cc(OC)c1OC,-3.8
14,C=CCN1C(=O)/C(=C\c2cc(I)c(O)c(OC)c2)C(=O)NC1=S,-1
15,O=C(N/C(=C\c1cn(-c2ccccc2)nc1-c1ccccc1)C(=O)N1CCOCC1)c1ccccc1,12.8
16,CCn1c2ccccc2c2cc(C#N)c(N)nc21,11.4
17,CC(C)CC(=O)Nc1cccc(Cl)c1Cl,-2.6
18,COc1cccc(C(=O)NCCNc2ccc(C(F)(F)F)cc2[N+](=O)[O-])c1,-8.9
19,CCOC(=O)C1(P(=O)(c2ccccc2)c2ccccc2)CCC1,1.4
20,Cc1cccc(N2CCC(N=CN3CCCCC3)=N2)c1,10.5
21,N#C/C(=C/c1cccc(O)c1)C(=O)Nc1cccc(Br)c1,-4.3
22,Cc1cccc(NC(=O)C2CC2(c2ccccc2)c2ccccc2)c1C (centres undefined),4.1
23,COC(=O)c1ccccc1NC(=O)CN(c1ccc(C)c(Cl)c1)S(C)(=O)=O,5.1

row,SMILES,displacement [%]
1,CC1=NN(c2cccc(Cl)c2)C(=O)/C1=C\c1c(C)[nH]n(-c2ccccc2)c1=O,-9.1
2,CC1=C(C(=O)OCc2ccc3c(c2)OCO3)C(c2ccc(N(C)C)cc2)NC(=O)N1 (centres undefined),-40.1
3,Cc1cc(C)c(S(=O)(=O)Nc2ccc(C(C)C)cc2)c(C)c1,7.9
4,CN(C)C(=O)c1cnn(-c2ccccc2)c1NC(=O)c1ccc(Br)cc1,-1
5,O=C(Nc1cccc(Cl)c1)c1ccc(-n2cnnn2)cc1,-10
6,COc1cccc(C(=O)N2CCN(CCCc3ccccc3)CC2)c1OC,3.6
7,O=C(Cc1ccccc1)Nc1cc(Cl)c(Cl)cc1Cl,-6.7
8,CC1(O)CC(=O)C(C(=O)c2ccccc2)C(c2cccc([N+](=O)[O-])c2)C1C(=O)c1ccccc1 (centres undefined),-2.3
9,CCc1c(C)sc(NC(=O)c2ccc(OC)c(OC)c2)c1C(=O)OC,3.2
10,Cc1ccc(NC2=C(Cl)C(=O)N(c3ccc(Br)cc3)C2=O)c(C)c1,7.7
11,CCOc1ccc2nc(SCC(=O)c3cccc([N+](=O)[O-])c3)sc2c1,-0.6
12,Cc1cccc(C(C)C)c1NC(=O)COc1ccc2c(C)cc(=O)oc2c1,9.4
13,Cc1oc2c(cc(O)c3ccccc32)c1C(=O)c1ccccc1,-1.7
14,Oc1ccc(/C=N/Nc2nncc(-c3ccccc3)n2)c(O)c1O,21.1
15,CC(C)CC(=O)Nc1ccc(I)cc1C(=O)O,10.5
16,CC(=O)c1cccc(NC(=O)CSc2nc(C)cc(C)n2)c1,-4.9
17,O=C(N/N=C/c1ccccn1)c1ccc([N+](=O)[O-])cc1Cl,-14.6
18,COc1cc(/C=C2/SC(=S)N(CCC(=O)NC34CC5CC(CC(C5)C3)C4)C2=O)cc(OC)c1OC,11.7
19,O=C(COc1ccc2ccccc2c1)Nc1ccc2c(c1)OCCO2,-1.9
20,O=C1C(c2nc3ccccc3s2)=C(O)c2ccccc21,10.9
21,CCOC(=O)c1c(C)oc2c(Br)cc(NS(=O)(=O)c3ccccc3)cc12,-0.8
22,COc1ccc(CC(=O)NNC(=O)c2ccc(Cl)cc2)cc1OC,-0.6
23,CN1C(=O)NC(=O)/C(=C/c2ccc(-c3cccc(Cl)c3Cl)o2)C1=O,74.5

# Reference: PubChem BioAssay AID1240 (Sanford-Burnham Center for Chemical Genomics, 2008)
